Some of these densities may be calculated back from excess volumes.
Assay: xn = mol fraction of the nth substance listed
Conditions: 100 kPa

CN1CCCC1=O + CCCC[n+]1ccn(C)c1.F[B-](F)(F)F
x1 = 1
Conditions | mass density [kg/m3]
298.15 K | 1027.1
303.15 K | 1022.6
308.15 K | 1018.2
313.15 K | 1013.7
318.15 K | 1009.3

CCCC[n+]1ccn(C)c1.F[B-](F)(F)F + CN1CCCC1=O
mass density [kg/m3]
Conditions | x2 = 0 | x2 = 0.108 | x2 = 0.2114 | x2 = 0.3061 | x2 = 0.4422 | x2 = 0.5097 | x2 = 0.6155 | x2 = 0.7054 | x2 = 0.8025 | x2 = 0.9025
298.15 K | 1198.8 | – | 1178.8 | 1168.9 | 1151.9 | 1142.2 | 1125.2 | 1108.7 | 1088.3 | 1061.1
303.15 K | 1195.2 | 1184.8 | 1175.1 | 1165.3 | 1148.2 | 1138.3 | 1121.3 | 1104.7 | – | 1056.8
308.15 K | 1191.6 | – | 1171.4 | – | 1144.3 | 1134.5 | 1117.3 | – | 1080.1 | 1052.6
313.15 K | 1188 | 1177.6 | – | 1157.9 | 1140.6 | 1130.8 | – | 1096.7 | 1076 | –
318.15 K | 1184.5 | 1174 | – | 1154.2 | 1136.8 | 1126.9 | 1109.5 | 1092.7 | 1071.9 | 1044.1
323.15 K | 1181 | – | 1160.6 | 1150.5 | 1133.1 | 1123.2 | 1105.6 | 1088.7 | 1067.8 | 1039.8

Reference: a compilation of properties of binary mixtures (doi:10.1016/j.molliq.2015.08.019)
